Source: paper PMC6919601, “Identification of Plasmodium dipeptidyl aminopeptidase allosteric inhibitors by high throughput screening” (PLoS ONE, 2019)
Among all 110,000 compounds or so, about 230 (0.21%) showed an effect of 50% or more. Some of the results follow.

These compounds were tested against DPAP1 (Plasmodium falciparum, UniProt Q8IIJ9) (assay: primary screen, percent inhibition; read by cleavage of a fluorogenic dipeptide substrate; higher = more effect of the substance).
Design: species or system P. falciparum D10 trophozoite lysates; single well
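Note: 30 min substrate incubation versus DMSO and 10 µM JCP410 controls.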

Sequence of DPAP1 (Q8IIJ9 whole entry, looked up): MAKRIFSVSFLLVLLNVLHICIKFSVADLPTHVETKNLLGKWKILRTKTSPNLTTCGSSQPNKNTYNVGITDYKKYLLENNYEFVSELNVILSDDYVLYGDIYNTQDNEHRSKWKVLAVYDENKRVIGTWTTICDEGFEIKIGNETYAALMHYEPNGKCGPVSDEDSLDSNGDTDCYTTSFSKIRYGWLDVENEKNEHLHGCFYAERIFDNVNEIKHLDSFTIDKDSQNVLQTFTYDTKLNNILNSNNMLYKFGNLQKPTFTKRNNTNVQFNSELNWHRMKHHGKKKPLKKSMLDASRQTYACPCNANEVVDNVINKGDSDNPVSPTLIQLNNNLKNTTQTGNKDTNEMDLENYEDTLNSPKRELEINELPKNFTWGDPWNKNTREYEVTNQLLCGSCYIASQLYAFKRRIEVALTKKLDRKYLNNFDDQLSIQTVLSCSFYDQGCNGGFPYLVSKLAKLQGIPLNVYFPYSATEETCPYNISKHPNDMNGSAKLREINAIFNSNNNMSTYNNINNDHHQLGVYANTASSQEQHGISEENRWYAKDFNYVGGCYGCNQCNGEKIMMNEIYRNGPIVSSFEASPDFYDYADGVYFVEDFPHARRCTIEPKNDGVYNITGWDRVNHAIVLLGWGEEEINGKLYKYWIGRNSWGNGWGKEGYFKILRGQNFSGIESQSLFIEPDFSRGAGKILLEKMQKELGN

Compound | % Inhibition @ 10 uM
O=C(CNc1cccc(Cl)c1)c1ccc(Cl)cc1 | -0.414%
CCc1ccccc1N(CC(=O)Nc1ccc(OC)cc1)S(=O)(=O)c1ccccc1 | 3.72%
Cc1[nH]nc2c1C(c1cc(Cl)ccc1OCc1cccc(F)c1)C(C#N)=C(N)O2 (stereo not shown) | -4.76%
O=C(c1ccc(Br)o1)N1CCN(c2ccc3nncn3n2)CC1 | -8.58%
Cc1cc(=O)n2nc(N3CCCC(C(=O)NCCCOC(C)C)C3)sc2n1 (stereo not shown) | -0.281%
CC1=C(C(=O)Nc2cc(C)ccn2)C(c2ccccc2Cl)C2=C(O)CCCC2=N1 (stereo not shown) | -2.88%
O=C1c2cccc3cccc(c23)C(=O)N1C1CCCCC1 | 2.92%
CCCn1c(CCCNC(=O)C2CCCCC2)nc2ccccc21 | 3.24%
CCOCCCNC(=O)c1cnn2c(C)c(Cc3ccccc3Cl)c(C)nc12 | 7.47%
COc1cccc(-c2nc(SCC(=O)Nc3nccs3)c(-c3ccccc3)[nH]2)c1 | 0.163%
COC(=O)/C=c1/sc2nc3ccccc3n2c1=O | 0.487%
COc1ccc(CC(=O)Nc2nccs2)cc1OC | 8.01%
N=c1c2c(n(Cc3ccccc3)c3ccccc13)CCC2 | -3.26%
O=C(c1ccc(Cn2cc(Br)cn2)o1)n1cccn1 | -3.13%
COc1ccc(C(=O)N2CCCN(C(=O)c3ccc(OC)cc3)CC2)cc1 | -3.32%
Cc1ccc(OCCCCCCN2CCOCC2)c(C)c1 | -2.18%
COc1ccc(N/C=C2/C(=O)NC(=O)N(c3ccccc3)C2=O)cc1Cl | 2.3%
CC(C)(Oc1ccc(Cl)cc1)C(=O)Nc1ccc(F)cc1 | -3.92%
Cc1ccccc1C(O)c1ccccn1 (stereo not shown) | -1.98%
CCOc1cc(C#N)c(-n2cccc2)cc1OCC | -0.703%
COc1ccc(CCNC(=O)Cc2c(C)c3ccc(O)c(C)c3oc2=O)cc1 | -4.39%
COC(=O)c1ccc(/C=C2/NC(=O)NC2=O)cc1 | 1.52%
O=c1c2cc3c(=O)n(-c4ccncc4)c(=O)c3cc2c(=O)n1-c1ccncc1 | 4.8%
Cc1ccc2nc(Cl)c3cc(C(=O)N4CCN(c5ncccn5)CC4)sc3c2c1 | -5.25%
COc1ccc(-c2cc(C(=O)N3CCc4ccccc4C3)no2)cc1 | 2.65%

Compound | % Inhibition @ 10 uM
COc1cc(/C=C2\SC(=O)N(CC(=O)N3CCOCC3)C2=O)ccc1OC(C)C | 1.67%
NC(=O)C1CCN(C2CC(=O)N(c3ccc(Cl)cc3)C2=O)CC1 (stereo not shown) | -0.305%
C=CCn1c(=N)n(CCCC)c2ccccc21 | -0.231%
COc1ccc(-c2[nH]nc3c2C(c2ccc(C(F)(F)F)cc2)C(C#N)=C(N)O3)cc1 (stereo not shown) | -0.105%
N#CC1C(=O)NC(=O)C([n+]2ccccc2)C1c1ccccc1Cl (stereo not shown) | 2.51%
COc1cccc2c1cc1c(=O)n(CC(=O)N3CCOCC3)nc(C)n12 | 4.65%
COC(=O)C1=C(O)/C(=C/c2cc(C)n(-c3cc(Cl)ccc3Cl)c2C)N=C1C | 18.3%
O=C(CN(Cc1ccc(Br)cc1)S(=O)(=O)c1ccc(Cl)cc1)N1CCCCC1 | -3.45%
Cc1ccc(C(=O)NCc2nc(-c3ccccc3)no2)cc1Cl | 2.14%
CCC(C)(C)NS(=O)(=O)c1cc2nc(O)c(O)nc2cc1C | 4.32%
Cc1ccc(OCCCCCN2CCCC2)c(C)c1 | 1.35%
CN1CCN(CCCNC(=O)Cn2ncc3c4ccccc4n(Cc4ccccc4)c3c2=O)CC1 | 0.137%
CC(=O)Nc1ccc(Nc2nc(-c3c(C)nc4sccn34)cs2)cc1 | -0.744%
O=C1NC(c2ccc(Oc3ccccc3)cc2)Oc2ccccc21 (stereo not shown) | 0.214%
CCOc1ccc(CCNS(=O)(=O)c2cc(-c3cc(C)no3)ccc2C)cc1OCC | -3.94%
CC1=CC2=NC(C(F)(F)F)(C(F)(F)F)NC(=O)N2C=C1 | -7.35%
N=C(NOC(=O)c1ccc2ccccc2c1)c1ccncc1 | 0.343%
O=C(Cn1ncc2c3ccccc3nc-2c1O)N1CCN(C(=O)c2ccco2)CC1 | 10.2%
CCOC(=O)c1sc(NC(=O)c2cc(=O)c3cc(Cl)ccc3o2)c(C(=O)OCC)c1C | 0.248%
N#Cc1cc2c(nc1SCC(=O)NCCc1ccccc1)CCCC2 | -3.63%
O=C(CN1Cc2ccccc2C1=O)NC1CCN(Cc2ccccc2)CC1 | -5.84%
CC(=O)NC(=O)c1nnn(-c2ccc(C)cc2)c1NC(C)=O | 3.61%
CC(=O)N1CCN(c2ccc(NC(=O)c3ccc(-c4ccccc4)cc3)cc2)CC1 | 5.12%
NS(=O)(=O)c1ccc(CC/N=c2/c(-c3ccccc3)c(O)c2=O)cc1 | 4.36%
